Results from the supplement of paper PMC9446081.
In all, about 39,000 compounds went through this assay and about 220 (0.56%) showed activity. Some of the results follow.

test system: Escherichia coli K-12 BW25113; assay: relative growth (OD600 normalised to plate interquartile mean) (fraction); higher = less growth inhibition, active = 0.2 or less; details: 50 µM; LB; incubation time: overnight (16-24 h)
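Note: static incubation at 37 °C against the wild-type strain, values averaged over two biological replicates.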

Row | SMILES | relative growth
1 | CC(=O)N1[C@@H]2c3ccc(-c4ccccc4)c(=O)n3C[C@H]1[C@H](CO)[C@H]2C(=O)N1CCN(C)CC1 | inactive: 0.982
2 | Cc1noc(C)c1S(=O)(=O)Nc1ccc2c(c1)CC(=O)N([C@@H](C)CO)C[C@@H](C)[C@H](CN(C)S(C)(=O)=O)O2 | inactive: 0.975
3 | C[C@H](CO)N1C[C@H](C)[C@H](CN(C)S(=O)(=O)c2cn(C)cn2)Oc2cc(C3=CCCC3)ccc2S1(=O)=O | inactive: 0.991
4 | COc1ccc(NC(=O)Nc2ccc3c(c2)CC(=O)N([C@@H](C)CO)C[C@H](C)[C@H](CN(C)Cc2ccc(C(F)(F)F)cc2)O3)cc1 | inactive: 1.03
5 | Nc1nc(=O)c2nc(Br)n([C@H]3O[C@H]4CO[PH](O)(O)O[C@@H]4[C@@H]3O)c2[nH]1 | inactive: 1
6 | C[C@@H]1CN([C@@H](C)CO)C(=O)Cc2cc(NC(=O)NC3CCCCC3)ccc2O[C@@H]1CN(C)C(=O)Nc1ccc(C(F)(F)F)cc1 | inactive: 1.04
7 | C[C@@H]1CCCCO[C@@H](CN(C)CC2CCCCC2)[C@H](C)CN([C@H](C)CO)C(=O)c2cc(NS(=O)(=O)c3ccccc3)ccc2O1 | inactive: 0.979
8 | C[C@H](CO)N1C[C@H](C)[C@H](CN(C)S(=O)(=O)c2cn(C)cn2)Oc2cc(C3=CCCCC3)ccc2S1(=O)=O | inactive: 1.02
9 | NC(=O)NCC#Cc1ccc2c(c1)[C@]1(C(=O)N2)[C@H](c2ccc(O)cc2)N2[C@H](c3ccccc3)[C@H](c3ccccc3)OC(=O)[C@H]2[C@@H]1C(N)=O | inactive: 0.955
10 | COC(=O)C(c1ccccc1Cl)N1CCc2sccc2C1.O=S(=O)(O)O (stereo not given) | inactive: 1.07
11 | C[C@@H]1CN([C@H](C)CO)C(=O)c2cc(NC(=O)Cc3ccccc3)ccc2O[C@H]1CN(C)S(=O)(=O)c1cn(C)cn1 | inactive: 0.948
12 | O=C(C=Cc1ccccc1)c1ccc(O)cc1O | inactive: 0.917
13 | C[C@H]1CN([C@@H](C)CO)C(=O)c2c(c3ccccc3n2C)-c2ccccc2CO[C@@H]1CN(C)C(=O)NC1CCCCC1 | inactive: 1
14 | C[C@@H]1CN([C@@H](C)CO)C(=O)c2cc(NC(=O)Nc3ccccc3)ccc2O[C@@H]1CN(C)S(=O)(=O)c1cn(C)cn1 | inactive: 1.02
15 | Cc1ccc(S(=O)(=O)Nc2ccc3c(c2)C(=O)N([C@@H](C)CO)C[C@@H](C)[C@@H](CN(C)C(=O)NC2CCCCC2)OCCCC[C@@H](C)O3)cc1 | inactive: 1.04
16 | O=C(O)c1ccc2cc(-c3ccc(O)c(C45CC6CC(CC(C6)C4)C5)c3)ccc2c1 | inactive: 0.767
17 | CN1C(=O)c2cc(NC(=O)c3ccc(F)c(F)c3)ccc2OC[C@@H]2O[C@H](CC(=O)N3CCOCC3)CC[C@@H]21 | inactive: 1
18 | COc1ccc(S(=O)(=O)Nc2ccc3c(c2)CC(=O)N([C@H](C)CO)C[C@@H](C)[C@H](CN(C)S(C)(=O)=O)O3)cc1 | inactive: 0.978
19 | O=C(O)c1cc(O[C@@H]2O[C@H](CO)[C@@H](O)[C@H](O)[C@H]2O)c2ccccc2c1O | inactive: 0.982
20 | COc1ccc(NC(=O)N(C)C[C@@H]2OCCCC[C@H](C)Oc3ccc(NC(=O)NC(C)C)cc3C(=O)N([C@H](C)CO)C[C@@H]2C)cc1 | inactive: 1.04

Row | SMILES | relative growth
21 | CNC(=O)N1C[C@H]2C[C@@H]3[C@@](C1)(CN(C)S3(=O)=O)O2 | inactive: 0.975
22 | Cc1ccc(S(=O)(=O)N(C)C[C@H]2Oc3ccc(NC(=O)NC(C)C)cc3CC(=O)N([C@H](C)CO)C[C@H]2C)cc1 | inactive: 1.04
23 | COc1ccc(S(=O)(=O)N(C)C[C@@H]2Oc3c(NS(=O)(=O)c4ccc(F)cc4)cccc3C(=O)N([C@H](C)CO)C[C@@H]2C)cc1 | inactive: 0.999
24 | COc1ccc(S(=O)(=O)N2C[C@H](O)COC[C@@H]3O[C@H](CC(=O)NCc4ccc(Cl)c(Cl)c4)CC[C@H]32)cc1 | inactive: 1
25 | COc1ccc(S(=O)(=O)N(C)C[C@H]2OCCCC[C@@H](C)Oc3ccc(NC(=O)CCCCCC(=O)Nc4ccccc4N)cc3C(=O)N([C@H](C)CO)C[C@H]2C)cc1 | inactive: 0.998
26 | COc1ccccc1-c1ccc2c(c1)O[C@@H](CN(C)C(=O)c1cccnc1)[C@H](C)CN([C@@H](C)CO)S2(=O)=O | inactive: 1.01
27 | CN(C)CC(=O)N[C@H]1CC[C@@H](CCNC(=O)C2CC2)O[C@@H]1CO | inactive: 1.01
28 | COCc1nnc2n1CCN(C(=O)c1ccn[nH]1)C2 | inactive: 1.01
29 | COc1ccc(S(=O)(=O)N(C)C[C@@H]2Oc3c(NS(=O)(=O)c4ccc(C)cc4)cccc3C(=O)N([C@@H](C)CO)C[C@H]2C)cc1 | inactive: 1.04
30 | COc1ccc(S(=O)(=O)Nc2ccc3c(c2)CC(=O)N([C@@H](C)CO)C[C@H](C)[C@@H](CN(C)S(=O)(=O)c2cn(C)cn2)O3)cc1 | inactive: 0.998
31 | C[C@H]1CCCCO[C@H](CN(C)C(=O)Nc2ccc3c(c2)OCO3)[C@@H](C)CN([C@@H](C)CO)C(=O)c2cc(NC(=O)Nc3ccc(C(F)(F)F)cc3)ccc2O1 | inactive: 0.976
32 | COc1ccc(S(=O)(=O)Nc2ccc3c(c2)[C@H]2C[C@@H](CC(=O)NCC4CC4)O[C@H](CO)[C@H]2O3)cc1 | inactive: 1.02
33 | O=C(C[C@H]1C=C[C@@H](NC(=O)c2cccc(F)c2)[C@H](CO)O1)NCCN1CCCC1 | inactive: 0.999
34 | COc1ccc(S(=O)(=O)Nc2ccc3c(c2)C(=O)N([C@H](C)CO)C[C@@H](C)[C@@H](CN(C)C(=O)Nc2cccc4ccccc24)O3)cc1 | inactive: 1.01
35 | COc1ccc(NC(=O)N(C)C[C@@H]2Oc3ccc(NS(=O)(=O)c4cn(C)cn4)cc3CC(=O)N([C@@H](C)CO)C[C@H]2C)cc1 | inactive: 0.997
36 | COc1cc(C(=O)O)cc(OC)c1O | inactive: 0.967
37 | C[C@@H]1CCCCO[C@H](CN(C)C(=O)CCCN(C)C)[C@H](C)CN([C@@H](C)CO)C(=O)c2cc(NC(=O)Nc3ccc(C(F)(F)F)cc3)ccc2O1 | inactive: 0.939
38 | C[C@@H]1CN([C@H](C)CO)C(=O)c2cc(NS(=O)(=O)c3ccccc3)ccc2O[C@H]1CN(C)C(=O)Nc1cccc2ccccc12 | inactive: 1.02
39 | C[C@H](CO)N1C[C@H](C)[C@H](CN(C)Cc2ccc(-c3ccccc3)cc2)Oc2c(NC(=O)C3CCOCC3)cccc2C1=O | inactive: 1
40 | C[C@@H]1CN([C@@H](C)CO)C(=O)c2cc(Br)cnc2O[C@@H]1CN(C)S(C)(=O)=O | inactive: 1.02

Row | SMILES | relative growth
41 | COCCOC(=O)N1C(=O)[C@@]2(c3cc(C#CCC(C(=O)OC)C(=O)OC)ccc31)[C@H](C(=O)N1CCc3cc(OC)c(OC)cc3C1)[C@H]1C(=O)O[C@H](c3ccccc3)[C@H](c3ccccc3)N1[C@@H]2c1ccc(O)cc1 | inactive: 1.03
42 | C[C@@H]1CN([C@@H](C)CO)S(=O)(=O)c2ccc(C#CC3CC3)cc2O[C@@H]1CN(C)C(=O)C1CCCCC1 | inactive: 1.01
43 | O=C(N[C@H]1C=C[C@H](CC(=O)N2CCOCC2)O[C@H]1CO)c1ccc2c(c1)OCO2 | inactive: 1.01
44 | CC/C=C\C/C=C\C/C=C\C/C=C\C/C=C\C/C=C\CCC(=O)OCC | inactive: 0.988
45 | C[C@@H]1CN([C@H](C)CO)C(=O)c2cc(NC(=O)Nc3ccc(C(F)(F)F)cc3)ccc2O[C@@H](C)CCCCO[C@@H]1CN(C)Cc1ccc(C(F)(F)F)cc1 | inactive: 1.03
46 | C[C@H]1CN([C@@H](C)CO)C(=O)c2cc(C#Cc3ccccc3F)cnc2O[C@@H]1CN(C)C(=O)Cc1ccncc1 | inactive: 0.991
47 | C[n+]1cccc(C(=O)NO)c1 | inactive: 0.985
48 | O=C(C[C@H]1CC[C@@H]2[C@H](COC[C@H](O)CN2S(=O)(=O)c2ccc(Cl)cc2)O1)N[C@H]1CCN(Cc2ccccc2)C1 | inactive: 0.999
49 | COCCOC(=O)N1C(=O)[C@@]2(c3cc(C#CCNC(N)=O)ccc31)[C@H](c1ccccc1OCCO)N1[C@H](c3ccccc3)[C@H](c3ccccc3)OC(=O)[C@H]1[C@@H]2C(=O)N1CCCCCCC1 | inactive: 0.996
50 | CN1CCN(Cc2ccc(NC(=O)Nc3ccc(Oc4cc(NC(=O)C5CC5)ncn4)cc3)cc2C(F)(F)F)CC1 | inactive: 0.903
51 | O=C(O)[C@H](O)Cc1ccccc1 | inactive: 0.999
52 | c1csc(-c2nc3ccc4ccccc4c3c3c2CCC3)c1 | inactive: 0.984
53 | C[C@@H]1CN([C@H](C)CO)C(=O)c2cc(NS(=O)(=O)c3cccs3)ccc2O[C@H]1CN(C)S(C)(=O)=O | inactive: 1.01
54 | C[C@H](CO)N1C[C@H](C)[C@@H](CN(C)S(=O)(=O)c2ccccc2)OCCCC[C@H](C)Oc2ccc(NC(=O)C3CCCCC3)cc2C1=O | inactive: 1.03
55 | Cc1ccc(S(=O)(=O)N(C)C[C@@H]2Oc3ccc(NS(=O)(=O)c4cn(C)cn4)cc3CC(=O)N([C@@H](C)CO)C[C@@H]2C)cc1 | inactive: 0.983
56 | C[C@@H]1CN([C@H](C)CO)C(=O)c2cc(NS(=O)(=O)c3cccs3)ccc2O[C@@H](C)CCCCO[C@@H]1CN(C)S(=O)(=O)c1cn(C)cn1 | inactive: 1
57 | COc1cccc(S(=O)(=O)N(C)C[C@@H]2Oc3c(NC(=O)Nc4cccc5ccccc45)cccc3C(=O)N([C@@H](C)CO)C[C@H]2C)c1 | inactive: 0.939
58 | C=c1[nH]/c(=C/c2cccnc2)c(=O)o1 | inactive: 1.01
59 | COc1ccccc1CN(C)C[C@@H]1OCc2ccccc2-c2c(n(C)c3ccccc23)C(=O)N([C@@H](C)CO)C[C@H]1C | inactive: 0.975
60 | C[C@@H]1CCCCO[C@H](CN(C)S(=O)(=O)c2ccccc2)[C@@H](C)CN([C@H](C)CO)C(=O)c2cc(NC(=O)CCCCCC(=O)Nc3ccccc3N)ccc2O1 | inactive: 1.02
